Patent US11925679B2, “H3.3 CTL peptides and uses thereof” (The Regents of the University of California, priority 2015, dated 2024)

Test system: H3.3.K27M (26-35)-stimulated CD8+ T cell lines
Assay: IFN-γ ELISA of peptide-stimulated CD8+ T cell lines against peptide-loaded T2 cells
Details: compared to T2 cells loaded with H3.3.Non-M (26-35), cap6D or nothing

Sequence: RMSAPSTGGV [H3.3.K27M (26-35)]
- IFN-γ production in response to peptide-loaded T2 target cells: peptide-dose-dependent increases of IFN-γ production
